According to PubChem BioAssay AID686979 (National Center for Advancing Translational Sciences (NCATS), 2013):
The campaign covered roughly 420,000 compounds. About 50,000 (12%) were called active. The inconclusive results got no clear call from the source; some entries with a clear call stand among them for comparison. The call rests on the fitted dose curve; in most records, active means well fitted inhibition curve with a large enough effect; inconclusive means small, poorly fitted or top-dose-only effect; inactive means flat fitted curve, though single readings scatter. No potency is given beside an inconclusive call; the fits are too rough.

assay: qHTS for Inhibitors of human tyrosyl-DNA phosphodiesterase 1 (TDP1): qHTS in cells in presence of CPT; details: chicken DT40 Tdp1-/-;hTDP1 cells + 20 nM CPT, ATP luminescence, 48 h; activity change, negative = growth inhibition: at 46.2 µM (top of the series) unless noted; further: nearly all actives have a fitted effect of over 55% in size
Summary of the method: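 Chicken DT40 Tdp1-/- cells stably complemented with human TDP1 were seeded at 400 cells/well in medium containing 20 nM camptothecin, exposed to pin-transferred compounds, and grown at 37 °C for at least 48 hr. Viability was read as ATP luminescence.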
On the % scale 0 is the no-effect control and ±100 the full control effect; potency means the concentration at half of the fitted maximal effect; tags describe the fitted curve by direction and shape.

SMILES | Potency | activity change, negative = growth inhibition
O=C(NCc1ccccc1)C(c1ccc(O)cc1)N(C(=O)c1cnccn1)c1ccccc1 (configuration not stated) | inconclusive [inhibitor, full curve, poor fit] | 
CSc1nsc(SC)c1NC(=O)OCCc1ccccn1 |  | inactive: -8.59%
O=C1c2ccccc2-c2ncnc3c(N4CCOCC4)cc(N4CCOCC4)c1c23 | inconclusive [inhibitor, single point] | 
COc1ccc(N2CC(O)=C(c3n(C)c4ccccc4[n+]3C)C2=N)cc1 | inconclusive [inhibitor, single point] | 
O=C(Cn1nc(Cc2ccncc2)c2ccccc2c1=O)Nc1cccc(C(F)(F)F)c1 | inconclusive [inhibitor, single point] | 
Cc1cc(NS(=O)(=O)c2ccc(NC(=S)NCc3ccccc3)cc2)no1 |  | inactive: -6.56%
Cc1ccc(N(C)C(=O)c2ccc(CNc3c(N4CCC(C)CC4)c(=O)c3=O)cc2)cc1 | inconclusive [inhibitor, single point] | 
COC(=O)c1ccc(OCC(=O)c2cccc(OC)c2)cc1 |  | inactive: -21.4%
OCC1OC(c2ccc(OCc3ccccc3)cc2OCc2ccccc2)C(O)C1O (configuration not stated) | active: 10.3 µM | 
COc1ccc(N2C(=O)CC(N3CCC(C(N)=O)CC3)C2=O)cc1 (configuration not stated) |  | inactive: -10.4%
S=C(NCCCN(Cc1ccc(Cl)cc1)c1ccc(Br)cn1)NCc1ccc2nc[nH]c2c1 | inconclusive [inhibitor, single point] | 
CC1(C)OC2CC3C4CC(F)C5=CC(=O)C=CC5(C)C4C(O)CC3(C)[C@]2(C(=O)CO)O1 (some centres not stated) |  | inactive: -25.4%
Cc1noc(C)c1C(=O)Nc1ccc(F)cc1F |  | inactive: -1.54%
CCOC(=O)Nc1ccc(C(=O)/C=C/c2ccccc2)cc1 | active: 5.17 µM | 
COCC(C)n1c(SCC(=O)Nc2sccc2C(N)=O)nc2ccccc2c1=O (configuration not stated) | active: 20.6 µM | 
CSc1ccccc1OCc1cc(C(=O)N2CCCC(C)C2)no1 (configuration not stated) |  | inactive: -7.09%
CCCCCCCCCCCCCCCC[n+]1ccc(/C=C/c2c[nH]c3ccccc23)cc1 | active: 0.891 µM | 
Nc1c2c(=O)oc(-c3ccccc3)cc2nn1-c1ccccc1 | active: 25.9 µM | 
CNC(=S)N/N=C/c1ccc(N2CCOCC2)s1 | active: 4.61 µM | 
CCCCc1ccc(Nc2cc(C)nc(-n3nc(C)cc3C)n2)cc1 | active: 4.61 µM | 
CCN(CC(=O)NC(C)C)C(=O)[C@H](C)NC(=O)c1ccc(Br)cc1 |  | inactive: 10.4%
COc1cc(OC)cc(C(=O)Nc2ccc3nc4c(c(Nc5ccc(OC)c(OC)c5)c3c2)CCCC4)c1 | active: 4.11 µM | 
O=C(Nc1ccc(-c2nc3ccccc3o2)c(O)c1)c1cc(Cl)ccc1Cl | inconclusive [inhibitor, single point] | 
O=C(Nc1ccsc1C(=O)NC1CCCCC1)c1ccccc1 | inconclusive [inhibitor, single point] | 

SMILES | Potency | activity change, negative = growth inhibition
CC(C)CN=CC1=C(O)c2ccccc2C1=O |  | inactive: 5.33%
CCOC(=O)c1ccc(S(=O)(=O)N2CCC(N3CCCCC3)CC2)cc1 | inconclusive [inhibitor, single point] | 
Cc1cc(C)n(CCN(C)Cc2nc(Cc3ccccc3F)no2)n1 |  | inactive: 2.72%
CSc1nnc2c(n1)c(C)nn2-c1cccc(C)c1 | inconclusive [inhibitor, full curve] | 
Cc1ccccc1OCC(=O)Nc1ccc(NC(=O)c2ccco2)cc1 | inconclusive [inhibitor, partial curve] | 
Cc1ccc(NC(=C(C#N)C#N)c2ccccc2)cc1 | inconclusive [inhibitor, single point] | 
Cc1ccc(C(=O)CSc2ncnc3sc4c(c23)CCCC4)cc1 | inconclusive [inhibitor, single point] | 
CCOc1ccc(-n2cc(-c3ccccc3)c3c(SC(C)C(=O)OC)ncnc32)cc1 (configuration not stated) | inconclusive [inhibitor, single point] | 
O=C(CSc1nc2ccccc2o1)NCCOc1ccccc1 |  | inactive: -0.488%
CCOc1cc(C(=O)NCC(C)(C)CNC(=O)c2cc(OCC)c(OCC)c(OCC)c2)cc(OCC)c1OCC | inconclusive [inhibitor, single point] | 
O=C(NCC(c1cccnc1)N1CCc2ccccc2C1)C(=O)Nc1ccccc1F (configuration not stated) | active: 14.6 µM | 
COc1ccc(-c2csc(C(O)c3ccc(F)cc3)n2)cc1OC (configuration not stated) | inconclusive [inhibitor, single point] | 
Cc1ccc(OCc2ccc(C(=O)N3CCOCC3)cc2)cc1C | active: 16.4 µM | 
COc1ccc(Br)cc1[C@H]1[C@@H]2C=CCC[C@@]2(C)C(=O)N1Cc1ccccc1 | inconclusive [inhibitor, single point] | 
COc1ccc(OC)c(C2C(C(=O)c3ccccc3)=C(C)Nc3nc4ccccc4n32)c1 (configuration not stated) |  | inactive: -22.5%
CC1Cc2cc(S(=O)(=O)CCC(=O)Nc3ccc(F)cc3)ccc2N1C(=O)C1CC1 (configuration not stated) | inconclusive [inhibitor, partial curve] | 
Cc1cc(C)c(NC(=O)COC(=O)c2nc3nccc(C)n3n2)c(Cl)c1 |  | inactive: 2.02%
COc1ccc(CN(C)CC(=O)Nc2cc3oc4ccccc4c3cc2OC)c(OC)c1 | active: 13 µM | 
O=C1N(Cc2cccc(Cl)c2)C[C@@H]2C[C@@H](c3ccc4nonc4c3)N3CCC[C@@]123 | inconclusive [inhibitor, single point] | 
COc1ccc(-c2cnc(C(O)c3ccc(C(C)(C)C)cc3)[nH]2)cc1 (configuration not stated) | inconclusive [inhibitor, single point] | 
CCOC(=O)/C(C#N)=C/c1cc2cc(C)c(C)cc2nc1Cl | inconclusive [inhibitor, single point] | 
CCN1CCc2c(sc(NC(=O)c3ccc(S(=O)(=O)N(C)C4CCCCC4)cc3)c2C(N)=O)C1 | inconclusive [inhibitor, single point] | 
COC(=O)[C@]1(Cc2ccccc2)N[C@H](c2ccc(-c3cc(C(C)=O)cs3)cc2)[C@@H]2C(=O)N(C)C(=O)[C@@H]21 | active: 16.4 µM | 
